A collection of fitness landscapes (doi:10.1126/science.1257360)
This is one part of the list.

B1: PhoQ; a variant is named by its letters at X, in order, P23837 (parent)
chain: MKKLLRLFFPLSLRVRFLLATAAVVLVLSLAYGMVALIGYSVSFDKTTFRLLRGESNLFYTLAKWENNKLHVELPENIDKQSPTMTLIYDENGQLLWAQRDVPWLMKMIQPDWLKSNGFHEIEADVNDTSLLLSGDHSIQQQLQEVREDDDDAEMTHSVAVNVYPATSRMPKLTIVVVDTIPVELKSSYMVWSWFIYVLSANLLLVIPLLWVAAWWSLRPIEALAKEVRELEEHNRELLNPATTRELTSLVRNLNRLLKSERERYDKYRTTLTDLTHSLKTPLXXLQXXLRSLRSEKMSVSDAEPVMLEQISRISQQIGYYLHRASMRGGTLLSRELHPVAPLLDNLTSALNKVYQRKGVNISLDISPEISFVGEQNDFVEVMGNVLDNACKYCLEFVEISARQTDEHLYIVVEDDGPGIPLSKREVIFDRGQRVDTLRPGQGVGLAVAREITEQYEGKIVAGESMLGGARMEVIFGRQHSAPKDE

Variants of: B1
Assay: enrichment ratio after two sorts for PhoP signalling (ratio (wild type AVST 3.29)); higher = more functional
Conditions: with PhoP (E. coli)

Variant	enrichment ratio
KEWS	≤ 0.25
VFMM	≤ 0.25
TFEH	≤ 0.25
RTFG	≤ 0.25
VILP	≤ 0.25
YLIV	≤ 0.25
AGQN	≤ 0.25
HLNH	≤ 0.25
SIAW	16.5
PHDP	≤ 0.25
KTQC	≤ 0.25
RHSF	≤ 0.25
DWLI	≤ 0.25
EILI	≤ 0.25
SKRL	≤ 0.25
DEYV	≤ 0.25
SICD	4.76
FDAM	≤ 0.25
IYFP	≤ 0.25
PRYM	≤ 0.25
SYSF	≤ 0.25
PNNY	≤ 0.25
FFEV	≤ 0.25
WHSM	≤ 0.25

Variant	enrichment ratio
WIMG	≤ 0.25
LLWI	≤ 0.25
PRRL	≤ 0.25
TRTV	9.35
LLCH	≤ 0.25
KTGE	≤ 0.25
TKLW	≤ 0.25
SVYH	0.421
FSNS	≤ 0.25
THLK	≤ 0.25
MVYV	≤ 0.25
IQAE	≤ 0.25
LGLI	7.51
VFIL	≤ 0.25
AWMN	≤ 0.25
WQAY	≤ 0.25
KHPS	≤ 0.25
QTNS	0.432
NRMC	≤ 0.25
RCFH	≤ 0.25
HGKY	≤ 0.25
RNEI	≤ 0.25
RDWK	≤ 0.25
WRNR	≤ 0.25

Variant	enrichment ratio
MLFA	≤ 0.25
LEHH	≤ 0.25
AWEV	≤ 0.25
NHLW	≤ 0.25
SWYA	≤ 0.25
AERT	≤ 0.25
LYIV	≤ 0.25
GPHT	≤ 0.25
YHIN	≤ 0.25
EQYY	≤ 0.25
HQSF	≤ 0.25
IHNE	≤ 0.25
EIAP	≤ 0.25
LCIY	≤ 0.25
VKMR	≤ 0.25
MVRI	≤ 0.25
KDDR	≤ 0.25
DTWT	≤ 0.25
KCRG	≤ 0.25
VLPN	≤ 0.25
QSNW	≤ 0.25
LCVI	≤ 0.25
VGWV	≤ 0.25
TVAI	3.37

Variant	enrichment ratio
HYFS	≤ 0.25
QSDL	11
LSID	≤ 0.25
IEAY	≤ 0.25
MDYS	≤ 0.25
VYRW	≤ 0.25
FTYH	≤ 0.25
DYKH	≤ 0.25
MNTC	≤ 0.25
APFR	≤ 0.25
QGTI	3
LTPK	≤ 0.25
TWYG	≤ 0.25
YWFL	≤ 0.25
FVIK	≤ 0.25
MFWS	≤ 0.25
QSPG	≤ 0.25
MNGI	5.05
RSTR	≤ 0.25
ARMV	≤ 0.25
DYTY	≤ 0.25
GGWE	≤ 0.25
IGSI	≤ 0.25
RSAE	≤ 0.25

Variant	enrichment ratio
QDHH	≤ 0.25
PCNS	≤ 0.25
YTGF	≤ 0.25
GGNG	≤ 0.25
HRTW	≤ 0.25
WSCH	≤ 0.25
HWQV	≤ 0.25
YKAT	≤ 0.25
FFYH	≤ 0.25
ELER	≤ 0.25
YQNT	≤ 0.25
IVSC	≤ 0.25
TGLD	7.18
WMKS	≤ 0.25
HDFM	≤ 0.25
GWST	≤ 0.25
MERV	≤ 0.25
GHPY	≤ 0.25
YSKT	≤ 0.25
KGNP	≤ 0.25
ECKP	≤ 0.25
HNSS	≤ 0.25
IHVW	≤ 0.25
EFKK	≤ 0.25

Variant	enrichment ratio
NKQM	≤ 0.25
YPVI	≤ 0.25
MNKK	≤ 0.25
GLNK	≤ 0.25
THKY	≤ 0.25
EDWG	≤ 0.25
MMNW	≤ 0.25
QYMY	≤ 0.25
MCWP	≤ 0.25
IQIA	≤ 0.25
EQDM	≤ 0.25
WRYP	≤ 0.25
QERY	≤ 0.25
ITND	≤ 0.25
YDTA	≤ 0.25
RKLR	≤ 0.25
AFFK	≤ 0.25
RPVL	≤ 0.25
TSMI	23
LNCK	≤ 0.25
MWPK	≤ 0.25
IIEA	≤ 0.25
EAYG	≤ 0.25
RGWN	≤ 0.25

Variant	enrichment ratio
LMMI	≤ 0.25
MLAI	4.36
NSSE	≤ 0.25
VQIQ	0.272
VLTL	3.19
KRTG	≤ 0.25
IVYM	≤ 0.25
PLNW	≤ 0.25
QDKL	≤ 0.25
REPV	≤ 0.25
TCDL	3.52
IVIC	≤ 0.25
KQPF	≤ 0.25
FIVK	≤ 0.25
YHSV	≤ 0.25
VYHH	≤ 0.25
WSHE	≤ 0.25
INDN	≤ 0.25
FRDY	≤ 0.25
YNVI	≤ 0.25
IDVL	≤ 0.25
LLYE	≤ 0.25
DMSE	≤ 0.25
WVFP	≤ 0.25

Variant	enrichment ratio
GREA	≤ 0.25
SGCT	11.1
ACHQ	≤ 0.25
VHCI	≤ 0.25
SCRT	≤ 0.25
FFTE	≤ 0.25
NYYS	≤ 0.25
ESVL	≤ 0.25
PDIS	≤ 0.25
HIRN	≤ 0.25
NDNY	≤ 0.25
GRNK	≤ 0.25
PQGG	≤ 0.25
QVVH	≤ 0.25
ALEK	≤ 0.25
SYNE	≤ 0.25
FQCY	≤ 0.25
GMES	≤ 0.25
LKVV	≤ 0.25
GWMY	≤ 0.25
MPAK	≤ 0.25
GLQH	≤ 0.25
RKYL	≤ 0.25
FNPA	≤ 0.25

Variant	enrichment ratio
VFQC	≤ 0.25
FKMY	≤ 0.25
IQIV	≤ 0.25
DQIT	≤ 0.25
VAKK	≤ 0.25
RSKT	≤ 0.25
EFVW	≤ 0.25
KSSN	≤ 0.25
PAVY	≤ 0.25
RQWT	≤ 0.25
AWEA	≤ 0.25
YHGS	≤ 0.25
THVH	0.294
AHEI	≤ 0.25
QMFK	≤ 0.25
NMRH	≤ 0.25
YNNF	≤ 0.25
VNMV	7.5
EPVG	≤ 0.25
NQNN	≤ 0.25
GQDP	≤ 0.25
KRAW	≤ 0.25
DFPI	≤ 0.25
INSA	≤ 0.25

Variant	enrichment ratio
PTDV	≤ 0.25
GLMM	1.41
RRYY	≤ 0.25
WWHN	≤ 0.25
NYKE	≤ 0.25
PQLP	≤ 0.25
NELL	≤ 0.25
FVFD	≤ 0.25
KENH	≤ 0.25
FHED	≤ 0.25
LAGG	≤ 0.25
TQFV	2.48
FRET	≤ 0.25
FLFV	≤ 0.25
GGFN	≤ 0.25
EKRH	≤ 0.25
FSII	1.77
SYHY	≤ 0.25
IIAL	≤ 0.25
TWHA	≤ 0.25
DYVI	≤ 0.25
YKLF	≤ 0.25
NQNG	≤ 0.25
LKHI	≤ 0.25

Variant	enrichment ratio
QELD	≤ 0.25
QQYI	≤ 0.25
NKPC	≤ 0.25
YHNS	≤ 0.25
TWAD	≤ 0.25
RSIM	≤ 0.25
TSSG	14.4
PKLS	≤ 0.25
ENYV	≤ 0.25
HDWS	≤ 0.25
PSLG	≤ 0.25
KNRY	≤ 0.25
LANL	≤ 0.25
YACY	≤ 0.25
DKLK	≤ 0.25
TLSF	4.9
ECYQ	≤ 0.25
EINC	≤ 0.25
IRWS	≤ 0.25
WYWG	≤ 0.25
DEYC	≤ 0.25
NYGH	≤ 0.25
YWSH	≤ 0.25
EDLK	≤ 0.25

Variant	enrichment ratio
KKGM	≤ 0.25
STPL	8
LANV	≤ 0.25
MGTK	≤ 0.25
VEMC	15.7
GMGA	≤ 0.25
ITLA	0.339
SFWY	≤ 0.25
FTHY	≤ 0.25
APGY	≤ 0.25
ECKF	≤ 0.25
AHRI	≤ 0.25
TRVS	0.901
RNTM	≤ 0.25
GNWR	≤ 0.25
QFCI	8.89
FKIE	≤ 0.25
RRFY	≤ 0.25
FSHW	≤ 0.25
NYST	≤ 0.25
TTDM	22.8
QYIQ	≤ 0.25
FVMM	8.76
KGFR	≤ 0.25

Variant	enrichment ratio
RMPQ	≤ 0.25
FRHY	≤ 0.25
EDKL	≤ 0.25
AMAK	≤ 0.25
TRRV	≤ 0.25
GTYK	≤ 0.25
FKAW	≤ 0.25
NDYN	≤ 0.25
DGGN	≤ 0.25
KMPS	≤ 0.25
HQNL	≤ 0.25
FMPK	≤ 0.25
DYFV	≤ 0.25
TFYR	≤ 0.25
HGNR	≤ 0.25
WKPP	≤ 0.25
FIHK	≤ 0.25
SMQT	≤ 0.25
